# Assay results taken from ChEMBL document CHEMBL4888484, “Replenishing the malaria drug discovery pipeline: Screening and hit evaluation of the MMV Hit Generation Library 1 (HGL1) against asexual blood stage Plasmodium falciparum ,using a nano luciferase reporter read-out” (2022).
# Where “and” joins values, the source holds several entries; their conditions need not be identical. Equal values may be shown once. Among all 150,000 compounds or so, about 540 (0.36%) showed an effect of 50% or more. This is one part of the list.
# Tested on: Plasmodium falciparum
# Test: Primary screen in NF54 nanoGlo assay, in single point, at 2uM, 72h; a lower Z score goes with more inhibition
# Type: functional, Erythrocyte
# Conditions: timepoint 72 hour
SMILES,% Inhibition [%],Z score,% Inhibition (2 µM)
O=C1c2ccccc2C(=O)N1CC(=O)n1nnc2ccccc21,-4,0.42,
CN(C)c1ccc(C(=O)NCCn2c(-c3ccncc3)nc3ccccc32)cc1,1,-0.17,
Cc1cc(=O)[nH]c(N2CCC(NC(=O)c3ccc(F)c(Cl)c3)CC2)n1,-9,1.56,
Cc1sc2ccccc2[n+]1Cc1ccccc1,-15,1.77,
Cc1ccsc1C(=O)Nc1cccn2cnnc12,-1,0.15,
Cc1ccc(-c2nc(-c3ccc4nnn(C)c4c3)no2)c(C)c1,-8,1.34,
Cc1nc2ccccn2c1CC(=O)NCCc1nncn1C,-12,1.62,
COc1c(F)ccc(CN2CCNC(=O)C23CCCC3)c1F,0,-0.08,
COCCn1c(-c2ccnn2C)nnc1N1CCN2CCOC[C@@H]2C1,3,-0.49,
Cc1ccc(NCC2CCN(C(C)C(=O)Nc3cc(C)no3)C2)nc1 (configuration not stated),1,-0.17,
CCCN(C)C(=O)c1nc(C(F)(F)F)ccc1Br,9,-1.1,
CCn1c(CN2CCC[C@H]2c2cccs2)nc2cc(S(=O)(=O)N(C)C)ccc21,-1,0.16,
CN(Cc1ccccc1)[C@H]1CCCN(C(=O)CCCc2ccccc2)C1,-17,1.45,
O=C(Cc1ccc(-c2ccccc2)cc1)Nc1ccc2[nH]c(=O)[nH]c2c1,-2,0.29,
NC(=O)c1c(NC(=O)c2ccc(S(=O)(=O)N3CCOCC3)cc2)sc2c1CCC2,-13,1.12,
CNC(=O)Cn1cc(NC2CC(C)(C)CC2C)cn1 (configuration not stated),-7,0.74,
CCN1CCN(C(=O)c2nn(-c3ccccc3)c3c(=O)n(C)cnc23)CC1,-13,1.21,
CC[C@H](C)[C@H](NC(=O)c1c(C)nn(C2CCS(=O)(=O)C2)c1C)c1nc2ccccc2[nH]1 (some centres not stated),-8,1.14,
Cc1ccc(CN(C)C(=O)[C@@H]2CCN(C(=O)OC(C)(C)C)C2)o1,-4,0.41,
CN(CC1CCC(NC(=O)C2CC3CCC2O3)CC1)C(=O)C1CC2CCC1O2 (configuration not stated),-5,0.83,
CCCC(NC(=O)CC1CCCCO1)c1nnn[nH]1 (configuration not stated),-10,0.98,
CC(C)COc1cncc(NCCN2C(=O)Cc3ccccc32)n1,-10,1.48,
COCCn1nc2n(c1=O)CCC1(CC2)CCN(C(=O)c2ccc(F)cc2)CC1,0,-0.01,
CC(C)C(=O)NCc1cccnc1-c1ccccc1,-8,1.37,
Fc1ccc(-n2nc(-c3ccco3)nc2[C@H]2CC23CCNCC3)cc1F,-7,1.13,
Oc1nc(N2CCc3ccccc32)nc2c1CCCC2,,,-1% and -2%
CCc1nn(C)cc1CNC[C@H]1CCCc2ccc(C(=O)O)cc21,-1,0.09,

SMILES,% Inhibition [%],Z score,% Inhibition (2 µM)
CC(C)CC1(CNC(=O)CS(=O)(=O)C(C)C)CCCC1,-5,0.58,
O=C(NCCc1ccccc1)N1CC[C@H]2[C@H](CCC(=O)N2CCCO)C1,4,-0.84,
O=C(c1cccnc1)N1C[C@H]2CC[C@@H](C1)N(C(=O)Cc1ccccc1)C2,3,-0.6,
Cc1nc(N2CCC(NCCN3CCCOC3=O)CC2)c2ccsc2n1,-9,1.23,
CCc1ccccc1CN=C(NC)NC,-17,1.69,
COc1ccc(S(=O)(=O)NCc2cccnc2)cc1N(C)S(=O)(=O)c1ccc(Cl)cc1,-5,0.7,
Cc1ncsc1NC(=O)CC(F)(F)F,-1,0.18,
CC1=CCN(c2cc(Cl)ccc2C#N)CC1,2,-0.36,
Cc1cnc(=O)n(C[C@H]2CCCC2(F)F)c1,-16,1.88,
O=C(NCCCN1CCOCC1)c1ccc2c(c1)nc1n2CCN(C2CCCCC2)C1=O,-19,2.44,
CCc1ccc(-c2cn(Cc3ccc4[nH]c(=O)[nH]c4c3)nn2)nc1,-14,2.58,
Cc1nc(N2CCCC2)c2c(C(=O)Nc3ccccc3F)c(C)oc2n1,-9,1.4,
Nc1nc2n(c1C(=O)c1ccc3c(c1)CCCC3)CCC2,30,-3.38,
COc1cc([C@H](C(=O)Nc2ccc3c(c2)OCO3)N(Cc2cccnc2)C(=O)Cn2nnc3ccccc32)cc(OC)c1OC,28,-3.12,
CC(C)(C)C(NS(C)(=O)=O)C(=O)NC1C2CCCOC2C1(C)C (configuration not stated),-9,1.75,
CC1(CS(=O)(=O)Cc2nnc(C3CC3)s2)CCCCC1,1,-0.13,
O=C(c1cccnc1-c1ccncc1F)N1CCCC1,-4,0.53,
O=C(c1cccc(Cl)c1)N1CCc2ncncc2C1,-14,1.92,
Cc1nn(-c2ccccc2)c(Oc2ccccc2)c1CN(Cc1ccco1)C(=O)c1ccc(Cl)cc1,-3,0.25,
c1cncc(-c2nc(-c3ccnc(N4CCCC4)c3)no2)c1,1,-0.11,
O=C(N[C@@H](c1ccccc1)c1nc2ccccc2[nH]1)c1ccncc1,-13,1.63,
CCC1(CC)CCN(C[C@]2(O)CCCN(CCc3ccccc3)C2=O)C1,-7,1.3,
CCc1sc(C(=O)N2CCC[C@@H]2C(=O)O)cc1C,-14,1.91,
O=C(Cc1cccc(F)c1F)N1C[C@H]2C[C@H](C1)[C@@H]1CCCC(=O)N1C2,-14,2.02,
CCOc1ccc(CNc2nc(NCc3ccc(OCC)cc3)n(C(=O)COc3ccc(Cl)cc3)n2)cc1,9,-1.1,
COCCN(Cc1cc(C)no1)CC(C)C,-8,1.18,
CC(C)C(=O)N1CCC([C@@H]2CN(Cc3ccncc3F)C[C@H]2CO)CC1,-6,0.86,
